Changes are numbered by the printed parent chain.
Assays:
[1] = biological target: T1, cyno OX40L on CHO-K1 cells (cynomolgus monkey, UniProt G7NVH7 1-183); assay: flow cytometry on fixed CHO-K1 cells, 48 h
T1 construct: whole, on cells
T1 sequence: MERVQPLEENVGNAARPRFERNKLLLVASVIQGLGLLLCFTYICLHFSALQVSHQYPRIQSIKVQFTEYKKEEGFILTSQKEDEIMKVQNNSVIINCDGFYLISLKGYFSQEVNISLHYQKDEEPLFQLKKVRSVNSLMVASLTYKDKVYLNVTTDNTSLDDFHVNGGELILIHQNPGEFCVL
Protocol: (§1) Samples were washed and resuspended in FACS Buffer (D-PBS with 10% FBS and 0.05% sodium azide supplemented with 5 nM TOPRO3). Cell suspensions were then analyzed on an iQuescreener. EC50 values were calculated using GraphPad Prism.

[2] = biological target: T2, human OX40L on CHO-K1 cells (human, UniProt P23510 1-183); assay: flow cytometry on fixed CHO-K1 cells, 48 h
T2 construct: whole, on cells; also called membrane expressed human OX40L
T2 sequence (looked up): T1 sequence with Q55R, E73K
Protocol: as §1

[3] = biological target: T3, human TNFα (recombinant, soluble) (human, UniProt P01375 in part); assay: cell-based or functional assay
[4] = biological target: T4, cynomolgus monkey TNFα (soluble) (cynomolgus monkey, UniProt P79337 77-233); assay: cell-based or functional assay
[5] = biological target: T2, human OX40L on CHO-K1 cells; assay: flow cytometry on fixed CHO-K1 cells expressing human OX40L, 48 h
Protocol: as §1

human serum albumin = biological target: T5, human serum albumin (human, UniProt P02768); assay: Gyrolab in-solution affinity, 2 h incubation
T5 construct: also called HSA; SA (human)
Protocol: (§2) Fitting of the dilution series was done using Gyrolab Analysis software, where KD- and receptor-controlled curves were analyzed to determine the KD value.

[6] = biological target: T6, cynomolgus monkey serum albumin (cynomolgus monkey); assay: Gyrolab in-solution affinity, 2 h incubation
T6 construct: also called cyno serum albumin; SA (cynomolgus monkey)
Protocol: as §2

[7] = biological target: T3, human TNFα (recombinant, soluble); assay: Gyrolab in-solution affinity, 24 h incubation
T3 sequence (P01375 77-233 limits assumed): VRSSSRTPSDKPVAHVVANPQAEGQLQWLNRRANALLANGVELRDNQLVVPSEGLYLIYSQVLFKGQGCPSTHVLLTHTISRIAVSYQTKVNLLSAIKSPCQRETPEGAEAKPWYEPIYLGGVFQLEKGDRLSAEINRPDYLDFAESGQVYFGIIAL
Protocol: as §2

[8] = biological target: T7, cynomolgus monkey OX40L (soluble) (cynomolgus monkey, UniProt G7NVH7 51-183); assay: Gyrolab in-solution affinity, 24 h incubation
T7 construct: also called cyno OX40L
T7 sequence: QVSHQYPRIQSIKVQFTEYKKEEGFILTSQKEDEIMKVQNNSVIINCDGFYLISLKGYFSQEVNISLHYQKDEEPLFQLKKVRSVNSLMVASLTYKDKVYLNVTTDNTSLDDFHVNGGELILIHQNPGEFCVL
Protocol: as §2

[9] = biological target: T8, human OX40L (recombinant, soluble) (human, UniProt P23510 51-183, limits assumed); assay: Gyrolab in-solution affinity, 24 h incubation
T8 construct: also called hOX40L
T8 sequence (looked up): T7 sequence with Q5R, E23K
Protocol: as §2

[10] = biological target: T4, cynomolgus monkey TNFα (soluble); assay: Gyrolab in-solution affinity, 24 h incubation
T4 sequence (P79337 77-233 limits assumed): as the sequence (P01375 77-233 limits assumed) above, with L37V, R44T, T72N, R138L counted along it
Protocol: as §2

[11] = biological target: T3, human TNFα (recombinant, soluble); assay: cell-based or functional assay; remark: listed apart in the source
human TL-1A = biological target: T9, human TL-1A (human, UniProt O95150 72-251, limits assumed); assay: SPR (ProteOn XPR36), cytokine immobilized, construct injected
T9 construct: also called hTL-1A
T9 sequence (looked up): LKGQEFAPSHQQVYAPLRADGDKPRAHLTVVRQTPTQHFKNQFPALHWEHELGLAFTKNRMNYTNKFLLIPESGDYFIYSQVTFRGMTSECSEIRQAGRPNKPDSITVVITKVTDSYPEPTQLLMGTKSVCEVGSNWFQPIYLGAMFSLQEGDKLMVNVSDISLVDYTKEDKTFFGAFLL
Protocol: (§3) TNF superfamily members human FASL, TNFβ, LIGHT, TL-1A, RANKL were tested as related cytokines for TNFα.
(§4) Flow rate during activation, deactivation and ligand injection was set to 30 μl/min. The pH of the 10 mM acetate immobilization buffer was chosen by subtracting ˜1.5 from the pl of each ligand.

human LIGHT = biological target: T10, human LIGHT (human, UniProt O43557 74-240, limits assumed); assay: as above
Sequence of human LIGHT (O43557 74-240 limits assumed): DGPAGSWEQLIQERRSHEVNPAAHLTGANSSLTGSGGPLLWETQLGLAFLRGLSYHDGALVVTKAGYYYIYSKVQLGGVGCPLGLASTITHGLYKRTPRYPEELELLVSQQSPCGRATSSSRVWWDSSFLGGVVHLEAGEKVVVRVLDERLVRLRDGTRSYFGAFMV
T10 construct: also called hLIGHT
Protocol: as §3, §4

human TNFβ = biological target: T11, human TNFβ (human, UniProt P01374 35-205); assay: as above
T11 construct: also called hTNFβ
T11 sequence (looked up): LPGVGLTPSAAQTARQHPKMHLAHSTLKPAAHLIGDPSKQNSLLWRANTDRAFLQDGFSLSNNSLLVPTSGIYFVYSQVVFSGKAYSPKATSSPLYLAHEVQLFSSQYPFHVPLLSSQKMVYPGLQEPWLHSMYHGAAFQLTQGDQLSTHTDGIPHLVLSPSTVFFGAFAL
Protocol: as §3, §4

human FASL = biological target: T12, human FASL (human, UniProt P48023 134-281, limits assumed); assay: as above
T12 construct: also called hFASL
T12 sequence (looked up): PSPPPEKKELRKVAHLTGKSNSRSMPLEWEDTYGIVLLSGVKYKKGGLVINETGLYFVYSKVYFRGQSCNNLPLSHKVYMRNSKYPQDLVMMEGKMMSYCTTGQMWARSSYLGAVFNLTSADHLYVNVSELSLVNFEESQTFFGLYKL
Protocol: as §3, §4

[12] = biological target: T1, cyno OX40L on CHO-K1 cells; assay: flow cytometry on fixed CHO-K1 cells expressing cyno OX40L, 48 h
Protocol: as §1

[13] = biological target: T13, human membrane TNFα on HEK293H cells (human, UniProt P01375); assay: flow cytometry, viable HEK293H membrane TNFα cells, 1 h
T13 construct: whole, on cells; also called membrane expressed TNFα
Protocol: as §1

human RANKL = biological target: T14, human RANKL (human, UniProt O14788 140-317, limits assumed); assay: SPR (ProteOn XPR36), RANKL injected over immobilized construct; also listed among the immobilized TNF related cytokines
T14 sequence (looked up): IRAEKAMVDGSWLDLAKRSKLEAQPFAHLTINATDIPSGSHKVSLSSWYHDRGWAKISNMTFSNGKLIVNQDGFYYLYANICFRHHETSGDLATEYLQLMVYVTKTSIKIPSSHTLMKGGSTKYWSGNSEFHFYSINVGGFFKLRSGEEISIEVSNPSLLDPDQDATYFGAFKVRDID

[14] = biological target: T13, human membrane TNFα on HEK293H cells; assay: flow cytometry, fixed HEK293H membrane TNFα cells, 24 h
T13 sequence (P01375 whole entry): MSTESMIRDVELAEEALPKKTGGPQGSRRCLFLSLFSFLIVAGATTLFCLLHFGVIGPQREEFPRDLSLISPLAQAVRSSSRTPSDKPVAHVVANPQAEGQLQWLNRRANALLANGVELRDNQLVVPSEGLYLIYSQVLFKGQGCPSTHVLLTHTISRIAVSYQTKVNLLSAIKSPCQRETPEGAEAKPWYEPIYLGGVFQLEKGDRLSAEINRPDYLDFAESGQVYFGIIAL
Protocol: as §1

[15] = biological target: T2, human OX40L on CHO-K1 cells; assay: cell-based or functional assay
[16] = biological target: T2, human OX40L on CHO-K1 cells; assay: cell-based or functional assay; remark: listed apart in the source
[17] = biological target: T13, human membrane TNFα on HEK293H cells; assay: flow cytometry, fixed HEK293H membrane TNFα cells, 1 h
Protocol: as §1

human CD30L = biological target: T15, human CD30L (human, UniProt P32971 63-234, limits assumed); assay: SPR (ProteOn XPR36), construct immobilized, ligand injected
T15 sequence (looked up): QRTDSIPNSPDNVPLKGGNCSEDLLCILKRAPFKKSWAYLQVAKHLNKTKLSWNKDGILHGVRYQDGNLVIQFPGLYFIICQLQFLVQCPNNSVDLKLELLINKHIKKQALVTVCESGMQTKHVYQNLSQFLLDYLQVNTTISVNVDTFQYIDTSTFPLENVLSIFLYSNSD

human TRAIL = human TRAIL (human, UniProt P50591 114-281, limits assumed); assay: as above
Sequence of human TRAIL (P50591 114-281 limits assumed): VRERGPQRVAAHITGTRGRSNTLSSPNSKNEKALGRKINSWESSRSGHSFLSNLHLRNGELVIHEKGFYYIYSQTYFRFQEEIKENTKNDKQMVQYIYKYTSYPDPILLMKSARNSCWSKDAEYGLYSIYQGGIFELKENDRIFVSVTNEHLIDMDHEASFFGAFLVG

human CD40L = biological target: T16, human CD40L (human, UniProt P29965 113-261, limits assumed); assay: as above
T16 sequence (looked up): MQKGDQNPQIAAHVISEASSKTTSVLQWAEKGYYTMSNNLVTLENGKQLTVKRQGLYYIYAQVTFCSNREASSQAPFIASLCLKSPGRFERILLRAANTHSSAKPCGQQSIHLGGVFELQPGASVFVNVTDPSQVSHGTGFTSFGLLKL

[18] = biological target: T3, human TNFα (recombinant, soluble); assay: Gyrolab in-solution affinity, 48 h incubation
Protocol: as §2

[19] = biological target: T7, cynomolgus monkey OX40L (soluble); assay: Gyrolab in-solution affinity, 48 h incubation
Protocol: as §2

[20] = biological target: T8, human OX40L (recombinant, soluble); assay: Gyrolab in-solution affinity, 48 h incubation
Protocol: as §2

[21] = biological target: T4, cynomolgus monkey TNFα (soluble); assay: Gyrolab in-solution affinity, 48 h incubation
Protocol: as §2

B1: ISVD construct […] (VHH)
chain: DVQLVESGGGVVQPGGSLRLSCAASGRTFSSIYAKGWFRQAPGKEREFVAAISRSGRSTSYADSVKGRFTISRDNSKNTVYLQMNSLRPEDTALYYCAAVGGATTVTASEWDYWGQGTLVTVSSGGGGSGGGSEVQLVESGGGVVQPGGSLRLSCAASGRTFSSIYAKGWFRQAPGKEREFVAAISRSGRSTSYADSVKGRFTISRDNSKNTVYLQMNSLRPEDTALYYCAAVGGATTVTASEWDYWGQGTLVTVSSGGGGSGGGS[about 120 residues skipped]GGGGSGGGSEVQLVESGGGVVQPGGSLRLSCAASGFTFRSFGMSWVRQAPGKGPEWVSSISGSGSDTLYADSVKGRFTISRDNSKNTLYLQMNSLRPEDTALYYCTIGGSLSRSSQGTLVTVSSGGGGSGGGSEVQLVESGGGVVQPGGSLRLS[about 80 residues skipped]RGQGTLVKVSSA
notes: Pentavalent, trispecific single chain of five VHH: 1E07/1-9GS-1E07/1-9GS-1C02/1-9GS-ALB23002-9GS-1C02/1-A; Produced in Pichia pastoris; also called F0273000252; F0275000252
factor of better binding than anti-hOX40L reference mAb [1]: > 10 fold | factor of better binding than anti-hOX40L reference mAb [2]: > 10 fold | mean IC50 [nM] (@15 ng/ml human TNF), A549/NFκB-luc reporter [3]: 0.22 nM | mean IC50 [nM] (@10 ng/ml cyno TNF), A549/NFκB-luc reporter [4]: 0.21 nM | EC50 [5]: 0.0133 nM | Kd (human serum albumin): 10.7 nM | Kd [6]: 11.2 nM | Kd [7]: 0.0089 nM | Kd [8]: 0.0083 nM | Kd [9]: 0.0497 nM | Kd [10]: 0.0413 nM | NFkB assay IC50 (M), HEK293_NFκB-NLucP reporter [11]: 3.1e-11 M | binding result (human TL-1A): no binding (tested: 10 nM or 300 nM F027300252) | binding result (human LIGHT): no binding (tested: 10 nM or 300 nM F027300252) | binding result (human TNFβ): no binding (tested: 10 nM or 300 nM F027300252) | binding result (human FASL): no binding (tested: 10 nM or 300 nM F027300252) | EC50 [12]: 0.0118 nM | EC50 [13]: 0.0904 nM | binding result (human RANKL): no binding (tested: 1 µM RANKL; 10 nM or 300 nM F027300252) | EC50 [14]: 0.0202 nM | PBMC activity assay IC50 (M), IL2 release [15]: 2.58e-09 M | OX40L PBMC assay (IC50, pM) [16]: 1090 pM | Ratio IC50 anti-hOX40L reference mAb/ISVD construct [16]: 10 | EC50 [17]: 0.147 nM | binding result (human CD30L): no binding (tested: 1 µM CD30L) | binding result (human TRAIL): no binding (tested: 1 µM TRAIL) | binding result (human CD40L): no binding (tested: 1 µM CD40L) | Kd [18]: 0.0086 nM | Kd [19]: 0.0098 nM | Kd [20]: 0.0282 nM | Kd [21]: 0.0343 nM

B2: ISVD construct […] (VHH)
chain: DVQLVESGGGVVQPGGSLRLSCAASGRTFSSIYAKGWFRQAPGKEREFVAAISRSGRSTSYADSVKGRFTISRDNSKNTVYLQMNSLRPEDTALYYCAAVGGATTVTASEWDYWGQGTLVTVSSGGGGSGGGGSGGGGSGGGGSGGGGSGGGGSGGGGSEVQLVESGGGVVQPGGSLRLSCAASGRTFSSIYAKGWFRQAPGKEREFVAAISRSGRSTSYADSVKGRFTISRDNSKNTVYLQMNSLRPEDTALYYCAAVGGATTVTASEWDYWGQGTLVTVSSGGGGSGGGGSGGGGSGGGGSGGGGSGGGGSGGGGS[about 120 residues skipped]GGGGSGGGSEVQLVESGGGVVQPGGSLRLSCAASGFTFRSFGMSWVRQAPGKGPEWVSSISGSGSDTLYADSVKGRFTISRDNSKNTLYLQMNSLRPEDTALYYCTIGGSLSRSSQGTLVTVSSGGGGSGGGSEVQLVESGGGVVQPGGSLRLS[about 80 residues skipped]RGQGTLVKVSSA
OX40L PBMC assay (IC50, pM) [16]: 866 pM | Ratio IC50 anti-hOX40L reference mAb/ISVD construct [16]: 2

Reference: patent US20210188986A1 (Ablynx, published 2021)
